# According to paper PMC4336329 (PLoS ONE, 2015):
# Screen size: about 310,000 compounds; about 2,200 (0.71%) showed an effect of 50% or more. Effects have a minus sign here. The list shows a part of the results.
# Biological target: human ether-à-go-go-related gene (hERG) potassium channel (human, UniProt Q12809)
# Assay: primary screen, population patch clamp on CHO cells stably expressing hERG
# Sequence of human ether-à-go-go-related gene (hERG) potassium channel (Q12809 whole entry, looked up): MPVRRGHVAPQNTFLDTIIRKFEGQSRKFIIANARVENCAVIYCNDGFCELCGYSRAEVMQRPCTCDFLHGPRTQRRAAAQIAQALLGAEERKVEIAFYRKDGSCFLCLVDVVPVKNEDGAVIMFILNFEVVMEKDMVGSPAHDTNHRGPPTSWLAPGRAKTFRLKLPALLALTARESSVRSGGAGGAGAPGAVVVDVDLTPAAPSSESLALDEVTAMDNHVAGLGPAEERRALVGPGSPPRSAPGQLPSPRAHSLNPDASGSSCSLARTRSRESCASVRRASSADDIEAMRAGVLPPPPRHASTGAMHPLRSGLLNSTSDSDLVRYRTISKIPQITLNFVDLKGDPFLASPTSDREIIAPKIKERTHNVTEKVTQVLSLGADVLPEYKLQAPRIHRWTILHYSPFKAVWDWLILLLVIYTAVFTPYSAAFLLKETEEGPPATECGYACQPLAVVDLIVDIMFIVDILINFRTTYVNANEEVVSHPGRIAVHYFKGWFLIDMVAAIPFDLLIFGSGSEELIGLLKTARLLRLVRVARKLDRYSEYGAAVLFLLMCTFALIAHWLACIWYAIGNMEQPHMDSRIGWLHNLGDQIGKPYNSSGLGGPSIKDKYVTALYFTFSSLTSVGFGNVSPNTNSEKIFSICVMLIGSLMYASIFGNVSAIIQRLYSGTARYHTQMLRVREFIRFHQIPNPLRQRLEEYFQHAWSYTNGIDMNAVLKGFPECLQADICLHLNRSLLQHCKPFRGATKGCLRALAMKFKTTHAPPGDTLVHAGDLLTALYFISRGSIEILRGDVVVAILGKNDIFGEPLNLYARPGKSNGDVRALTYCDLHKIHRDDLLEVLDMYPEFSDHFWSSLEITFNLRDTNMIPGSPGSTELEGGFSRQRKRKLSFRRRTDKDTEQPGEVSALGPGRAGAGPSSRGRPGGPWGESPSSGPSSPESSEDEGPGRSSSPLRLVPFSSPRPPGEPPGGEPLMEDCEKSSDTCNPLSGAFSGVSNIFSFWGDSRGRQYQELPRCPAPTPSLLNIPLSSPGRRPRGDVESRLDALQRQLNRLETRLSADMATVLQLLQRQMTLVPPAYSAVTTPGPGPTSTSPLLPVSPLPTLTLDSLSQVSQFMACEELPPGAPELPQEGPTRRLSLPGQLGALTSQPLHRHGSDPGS
row,Compound,"hERG current change (%, negative = inhibition) at 1uM"
1,Cc1ccc(OC(C)C(=O)N2CCCc3ccccc32)cc1 (stereo not drawn),-7.48%
2,CCCn1c2ccccc2c2nnc(SCC(=O)Nc3nnc(CC(=O)OCC)s3)nc21,12.3%
3,CN1CCCN(c2ncnc3scc(-c4ccc(F)cc4)c23)CC1,2.69%
4,COCCN(C(=O)COC(=O)CCn1c(C)csc1=O)c1c(N)n(Cc2ccccc2)c(=O)[nH]c1=O,13.6%
5,CCOC(=O)C(=CNNc1c(C)csc1C(=O)OC)C(=O)OCC,16.7%
6,N#Cc1c2n(c3c(=O)n(Cc4ccccc4Cl)cnc13)CCCCC2,-10.1%
7,CCSc1nc2sc3c(c2c(=O)[nH]1)CCc1ccccc1-3,-1.6%
8,CN(C)S(=O)(=O)c1cccc(NC(=O)COC(=O)/C=C/c2ccc([N+](=O)[O-])cc2)c1,-3.19%
9,C=C(C)Cn1c(CCNC(=O)CC)nc2ccccc21,0.764%
10,CCN(c1ccccc1)S(=O)(=O)c1ccc(C(=O)N(CCCN(C)C)c2nc3c(C)cccc3s2)cc1.Cl,3.32%
11,Cc1ccc(C(=O)N2CCN(c3ccc(C(F)(F)F)cn3)CC2)cc1,-2.79%
12,CCOC(=O)C1CCN(C(=O)C(C)Oc2ccc(Br)cc2)CC1 (stereo not drawn),4.97%
13,C=CCNCC(=O)NN=C(c1ccccc1)c1ccccc1,-40.8%
14,O=C(Oc1cccc(-n2cnnn2)c1)C1CCCCC1,-7.64%
15,Cc1cccc(C(=O)OCc2cc(=O)oc3c(C)c(C)ccc23)c1O,-3.57%
16,Cc1c(Cl)ccc2c(C(N)=O)cc(-c3ccccn3)nc12,9.04%
17,Cc1cc(Br)ccc1OCCNCc1ccccc1.O=C(O)C(=O)O,11.6%
18,COc1cc(NC(=O)c2ccc3c(=O)n(Cc4ccco4)c(=S)[nH]c3c2)cc(OC)c1OC,10.3%
19,CN(C1CCCCC1)S(=O)(=O)CCNC(=O)c1ccccc1,5.09%
20,CC(=O)Nc1ccc(S(=O)(=O)NC(C)C(=O)NC(C)c2ccccc2)cc1 (stereo not drawn),10.7%
21,O=C(CSc1ccc(-c2ccco2)nn1)Nc1ccc(F)cc1F,-7.44%
22,COC(=O)[C@@]1(Cc2ccc(F)cc2)[C@H]2c3cc(C(=O)N4CCCC4)n(CCO)c3C[C@H]2CN1C(=O)c1ccccc1,2.62%
23,Cc1nc(CS(=O)c2ccccc2)cc(N2CCOCC2)n1 (stereo not drawn),4.14%

row,Compound,"hERG current change (%, negative = inhibition) at 1uM"
1,c1ccc(CCn2nnnc2C(c2cccnc2)N2CCN(c3nc4ccccc4s3)CC2)cc1 (stereo not drawn),-40.4%
2,COc1ccc(NC(=O)Nc2ccccc2C(=O)N2CCCC2)cc1,5.79%
3,C[C@]12CC[C@H](O)CC1=CC[C@@H]1[C@@H]2CC[C@@]2(C)[C@H]1CC[C@]2(C)O,4.93%
4,O=C(NC(=S)NCC1CCCO1)c1ccc([N+](=O)[O-])cc1 (stereo not drawn),10.3%
5,O=S(=O)(Nc1ccc(Br)cn1)c1cccs1,11.3%
6,CC(=O)N1CCN(c2ccc(NCc3cccc4ccccc34)cc2)CC1,4.48%
7,O=c1[nH]c(CSc2ccccn2)nc2c1cnn2-c1ccccc1,5.48%
8,O=C1c2ccsc2SCCN1Cc1cccc(F)c1,5.65%
9,Cc1nc2c(c(C)nn2-c2ccccc2)c(C)c1C,7.99%
10,CC(=O)Nc1cccc(N(C(=O)C2COc3ccccc3O2)C(C(=O)NC2CCCCC2)c2cn(C)nc2C)c1 (stereo not drawn),20.4%
11,CCOC(=O)C(Cc1ccccc1)NC(=O)CCc1c(C)nc2nc(C)nn2c1C (stereo not drawn),10.3%
12,CCOC(=O)C(C)n1cnc2c(oc3ccccc32)c1=O (stereo not drawn),9.75%
13,O=C(NC1CC1)C1CCN(C2CCN(C(=O)c3ccc4cccc(F)c4n3)CC2)CC1,4.34%
14,NS(=O)(=O)c1ccc(-c2ccc(/C=C3\NC(=S)NC3=O)o2)cc1,9.62%
15,COc1ccc(-c2nc(CN3CCN(c4cc(C)nc(C)c4)CC3)c(C)o2)c2ccccc12,-12.4%
16,COc1ccc(N(CC(=O)NCCSCc2cccc(Cl)c2)S(C)(=O)=O)cc1Cl,7.16%
17,COCCN(CCOC)C(=O)Nc1ccc(Cl)cc1,-0.242%
18,CNC(=S)NNC(=O)c1sccc1OCc1ccc(C)cc1,2.12%
19,Cc1cccc(C)c1NC(=O)CS(=O)CC(=O)NCCCc1ccccc1 (stereo not drawn),10.2%
20,COc1cccc(-c2nnc(-c3ccc(C)o3)o2)c1,2.38%
21,CCCc1nc2oc3c(NCCN4CCOCC4)ncnc3c2c2c1CCCC2,9.2%
22,COc1cc(/C=N/NC(=S)Nc2cccnc2)cc(OC)c1OC,5.16%
23,CC(=O)c1sc(NC(=O)c2ccc(Cl)cc2)nc1C,10.7%

row,Compound,"hERG current change (%, negative = inhibition) at 1uM"
1,CCOc1cc(S(=O)(=O)NCc2ccccn2)c(C)cc1C,-16.2%
2,CCOCc1nnc(NC(=O)c2cc(OC)cc(OC)c2)s1,14.7%
3,CCCn1nnc(NC(=O)COc2cc(C)ccc2C(C)C)n1,-2.78%
4,Fc1cccc(-c2csc(-c3ccno3)n2)c1,11.1%
5,O=C1c2ccccc2C(=O)C1c1ccc2ccccc2n1,4.78%
6,CCCN1CCN(c2nc3c([nH]2)c(=N)ncn3CC(O)CO)CC1 (stereo not drawn),18.3%
7,O=C(c1c(F)cccc1F)N1CCN(S(=O)(=O)c2ccc3c(c2)OCCO3)CC1,18.9%
8,O=C(Nc1cc(C(F)(F)F)ccc1Cl)C(Sc1n[nH]c(=O)[nH]c1=O)c1ccccc1 (stereo not drawn),8.07%
9,CNC(=S)N1N=C(c2ccccc2)CC1c1ccc(Br)cc1 (stereo not drawn),2.67%
10,O=C(CSc1ccc2ccccc2c1)NCCc1ccc(O)c(O)c1,5.01%
11,CCN1CNC(=S)N(CCc2ccccc2)C1,7.18%
12,CCOC(=O)/N=C(/NC(=O)Nc1ccc(C(=O)OCC)cc1)OC,4.77%
13,CCC(O)c1cc2c(cc1NC(=O)c1ccc(C)cc1)OCCO2 (stereo not drawn),6.5%
14,Cc1c(C(=O)NC2CCCc3ccccc32)oc2ccccc12 (stereo not drawn),6.98%
15,COc1ccc(C)cc1NC(=O)N1CCC(CO)(CC2CCCCO2)CC1 (stereo not drawn),6.36%
16,CCOc1ccc(N2CC(C(=O)NCCN3C(=O)S/C(=C\c4ccc(OC)cc4)C3=O)CC2=O)cc1 (stereo not drawn),9.86%
17,Cc1cc([N+](=O)[O-])ccc1NC(=O)C(C)NC1CCCCC1 (stereo not drawn),10.9%
18,Cc1c(NC(=O)/C(=C/c2cccs2)c2cccs2)c(=O)n(-c2ccccc2)n1C,5.43%
19,O=C(NCc1n[nH]c(=S)n1-c1ccccc1)c1cccs1,4.29%
20,Cc1ccc(S(=O)(=O)N(C)C)cc1NC(=O)COC(=O)c1c(-c2ccccc2)noc1C,-0.737%
21,C=CCn1c(SCC(=O)Nc2ccc(NC(=O)c3ccco3)c(OC)c2)nnc1-c1ccncc1,5.01%
22,O=C(CSc1ccsc1[N+](=O)[O-])N1CCCCC1,2.07%
23,CN(C)/C=N/NC(=O)c1ccccc1,13.2%

row,Compound,"hERG current change (%, negative = inhibition) at 1uM"
1,C(=C\c1ccc2ccccc2n1)/c1ccccc1,12.6%
2,CCOC(=O)C1CCN(C(=O)CC(C)c2ccccc2)CC1 (stereo not drawn),9.59%
3,COc1cccc(-n2nc3c(=O)n(Cc4ccccc4Cl)nc(C)c3c2C)c1,17.2%
4,O=C(Nc1ccc2c(c1)OCO2)c1cc(C2CC2)on1,17.5%
5,COc1ccc2c3n([n+]([O-])c2c1)CCN=C3c1ccc(Cl)cc1,1.64%
6,Cc1ccnc(SCC(=O)Nc2sccc2C#N)n1,12.7%
7,COc1cccc(C(=O)NCC(=O)N/N=C/c2cn[nH]c2-c2ccccc2)c1,-6.97%
8,O=C(Nc1cccnc1)c1ccc(COc2ccccc2Br)cc1,11.2%
9,CN1CC(C#N)C2(O)c3ccccc3CCC2C1 (stereo not drawn),13.6%
10,Cc1ccc(Cl)c(OC(=O)Cn2cnc3c2c(=O)n(C)c(=O)n3C)c1,14.9%
11,COc1ccc(Cc2nnc(NC(=O)Nc3ccc(F)cc3)s2)cc1OC,10.7%
12,CCOc1ccccc1N1CCN(C(=O)CCNS(=O)(=O)c2ccccc2F)CC1,17.6%
13,Cc1ccc(C)c(OCc2nc(-c3cccnc3)no2)c1,6.88%
14,Cc1ccc(C(=O)Nc2cccnc2)cc1S(=O)(=O)N1CCCCCC1,10.9%
15,C=CCOc1ccccc1CN1CCN(CCc2ccccc2)C(CCO)C1 (stereo not drawn),-24.3%
16,CCN1CCN(C(=S)NC(=O)c2cccs2)CC1,3.67%
17,CCc1c(C)nc(SCC(=O)N2CC(C)OC(C)C2)[nH]c1=O (stereo not drawn),-2.18%
18,CC(=O)Nc1ccc2sc(NC(=O)CN3CCOCC3)nc2c1,14.4%
19,CC(C)NC(=O)CS(=O)(=O)c1ccccc1,0.994%
20,CC(C)OCCCNC(=O)c1cccc2c1C(=O)c1ccc(Cl)cc1S2(=O)=O,8.81%
21,COc1ccc(Cl)cc1NC(=O)C1CCN(C(=O)C2CC(=O)N(c3ccc(C)cc3)C2)CC1 (stereo not drawn),-10.5%
